Experimental data as given in PubChem BioAssay AID686979 (National Center for Advancing Translational Sciences (NCATS), 2013).
Among all 420,000 compounds or so, about 50,000 (12%) were called active. This list was built around the results that the source calls inconclusive (neither active nor inactive); the mix of calls is not that of the screen. Calls follow the shape of the dose curve; as a rule, active = well fitted inhibition curve with a large enough effect; inconclusive = small, poorly fitted or top-dose-only effect; inactive = flat fitted curve, though single readings scatter. No potency is given beside an inconclusive call; the fits are too rough.

Test: qHTS for Inhibitors of human tyrosyl-DNA phosphodiesterase 1 (TDP1): qHTS in cells in presence of CPT; also: nearly all actives have a fitted effect of over 55% in size
Settings: chicken DT40 Tdp1-/-;hTDP1 cells + 20 nM CPT, ATP luminescence, 48 h; activity change, negative = growth inhibition: at 46.2 µM (top of the series) unless noted
In short: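 Chicken DT40 Tdp1-/- cells stably complemented with human TDP1 were seeded at 400 cells/well in medium containing 20 nM camptothecin, exposed to pin-transferred compounds, and grown at 37 °C for at least 48 hr. Viability was read as ATP luminescence.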
% is scaled to controls: 0 for no effect and ±100 for the full control effect; potency is read from the fitted curve at half-maximal effect; tags tell the direction and shape of the fitted curve.

Compound	activity change, negative = growth inhibition	Potency
Cc1nn(CC(=O)NCCc2ccccc2)c(=O)c2cc3occc3n12	inactive: 1.61%	–
Cc1cc(C)c(S(=O)(=O)N2CCCC(C(=O)N3CCCC3)C2)c(C)c1 (configuration not stated)	–	inconclusive [inhibitor, single point]
CN(C)S(=O)(=O)c1cccc(COC(=O)C2=COCCO2)c1	inactive: -6.56%	–
Cc1ccc(S(=O)(=O)NCc2ccc(C(=O)N3CCN(Cc4ccccc4)CC3)cc2)cc1	–	inconclusive [inhibitor, partial curve]
Cc1ccc(CN2C(=O)CSCC2(C)C(=O)NC(C)C)cc1 (configuration not stated)	inactive: -2.68%	–
CC(=O)Nc1cc(-c2ccc(N3CCN(C)CC3)cc2)cn2c(-c3cccc(C(=O)N(C)C)c3)cnc12	–	inconclusive [inhibitor, single point]
Cc1ccc(C)c(NC(=O)Cn2c(=O)n(Cc3ccc4c(c3)OCO4)c(=O)c3ccc(C(=O)NC4CCCCC4)cc32)c1	–	active: 2.59 µM
CCn1c(=O)c2ccccc2n(CC(=O)NCCC2=CCCCC2)c1=O	inactive: -0.874%	–
CC(Cc1ccccc1)N/C=C1/CC(=O)NC1=O (configuration not stated)	inactive: 4.68%	–
COCCn1c(=O)c(-c2ccc(Cl)cc2)nc2cnc(OC)nc21	inactive: 6.38%	–
COc1ccc(-c2ccc([C@H]3[C@H]4C=CC[C@@H](C)[C@@H]4C(=O)N3Cc3ccccc3)c(F)c2)cc1	–	inconclusive [inhibitor, partial curve, poor fit]
Cc1cccc(C(=O)Nc2ccc(C(=O)N/N=C/c3ccco3)cc2)c1	inactive: -3.25%	–
COc1ccc(CS(=O)(=O)c2ncn[nH]2)cc1	inactive: 14.1%	–
COc1ccccc1N1CC(O)=C(c2nc3ccccc3c(=O)[nH]2)C1=N	–	inconclusive [inhibitor, partial curve]
CCc1cccc(C)c1NC(=O)C(CC)n1ncn2c(cc3cc(C)ccc32)c1=O (configuration not stated)	–	inconclusive [inhibitor, partial curve]
Cn1cc(C(F)(F)F)nc1-c1ccc(OCC(O)CNCCOc2ccc(O)c(C(N)=O)c2)cc1 (configuration not stated)	inconclusive: -36.4% [inhibitor]	inconclusive [inhibitor, single point]
Cc1ccc2c(c1)CC(C)N2S(=O)(=O)c1nnc(NC(=O)C(C)C)s1 (configuration not stated)	–	inconclusive [inhibitor, partial curve]
CCOC(=O)N1CCN(Cc2nc3c(c(=O)n(C)c(=O)n3C)n2Cc2ccccc2C)CC1	–	inconclusive [inhibitor, single point]
CCN=c1scc(-c2ccccc2)n1/N=C/c1ccccn1	–	active: 4.11 µM
O=c1[nH]c(C2CCN(S(=O)(=O)c3ccc([N+](=O)[O-])cc3)CC2)nc2c1nnn2Cc1ccccc1	–	inconclusive [inhibitor, single point]
O=C(CSc1nnc(-c2ccc(Br)cc2)o1)N1CCN(C(=O)c2ccco2)CC1	–	inconclusive [inhibitor, partial curve, poor fit]

Compound	activity change, negative = growth inhibition	Potency
Cc1cc(NC(=O)CCC(=O)N(c2ccc(F)cc2)C(C(=O)NC2CCCC2)c2ccc(C)o2)no1 (configuration not stated)	inactive: -11.7%	–
COC(=O)C1(C(=O)OC)c2ccccc2N(S(=O)(=O)c2ccc(C)cc2)C1CC(C)=O (configuration not stated)	–	inconclusive [inhibitor, single point]
CCOC(=O)[C@]12CCC=C1N(CCC1=CCCCC1)C(=O)[C@H](CC(=O)N1CCC(c3ccccc3)CC1)C2	–	inconclusive [inhibitor, single point]
CCOc1ccc2[nH]c(=O)c(CN(Cc3ccco3)C(=O)c3cccc(F)c3)cc2c1	–	inconclusive [inhibitor, single point]
CC(C)c1cc(C(N)=O)c(NC(=O)c2cccc(COc3ccc(Br)cc3)c2)s1	–	inconclusive [inhibitor, single point]
C=C1CC[C@H](O)CC1=C/C=C1\CCC[C@]2(C)[C@@H]([C@H](C)CC[C@@H](O)C(C)(C)O)CC[C@@H]12	–	inconclusive [inhibitor, single point]
CCOC(=O)c1c(NC(=O)COc2ncnc3ccccc23)sc(C)c1CC	–	inconclusive [inhibitor, single point]
O=C(Nc1ccc(F)cc1)N[C@H]1CC[C@H](CCNS(=O)(=O)c2cccc(Cl)c2)O[C@@H]1CO	–	inconclusive [inhibitor, single point]
CN(c1ccc(F)cc1)S(=O)(=O)c1ccc(Cl)c(C(=O)NCc2ccco2)c1	–	inconclusive [inhibitor, single point]
CCCn1c(NCc2ccco2)nc2c1c(=O)n(C)c(=O)n2C	–	inconclusive [inhibitor, single point]
CCOC(=O)CNC(=O)N1CCc2ccc(NC(=O)c3ccccc3OC)cc2C1	–	inconclusive [inhibitor, single point]
COC(=O)c1c(NC(=O)c2cc3nc(-c4ccc(Br)cc4)cc(C(F)(F)F)n3n2)sc2c1CCCC2	–	inconclusive [inhibitor, single point]
CCc1ccc(Nc2cc(C(=O)NCCCN(C)c3ccccc3)c3ccccc3n2)cc1	–	inconclusive [inhibitor, single point]
Cc1ccc(C)c(NC(=O)COc2coc(CN3CCc4ccccc4C3)cc2=O)c1	–	active: 18.4 µM
Cc1ccc(-c2nn(-c3ccc(F)cc3)cc2C(=O)NCC2CCCO2)cc1 (configuration not stated)	–	inconclusive [inhibitor, single point]
COC(=O)c1sccc1NC(=O)Nc1cccc(C)c1	inactive: 0.0948%	–
CC1CCN(C(=O)c2[nH]cnc2C(=O)Nc2ccc(Cl)cc2)CC1	–	inconclusive [inhibitor, single point]
CCOc1ccc(CCNC(=O)c2sc3ncccc3c2-n2c(C)ccc2C)cc1	–	active: 13 µM
CCc1noc(-c2ccc(N(C)Cc3ccc(OC)cc3)c([N+](=O)[O-])c2)n1	–	active: 6.51 µM
COc1cccc(NC(=O)Nc2ccc(F)cc2)c1	–	inconclusive [inhibitor, single point]
